Sequences and labels used below:
B1: CPEB3 Ribozyme (parent)
chain: UAACAGGGGGCCACAGCAGAAGCGUUCACGUCGCAGCCCCUGUCAGAUUCUGGUGAAUCUGCGAAUUCUGCUGUAUAUCUC

Read counts are not given, so values of variants with three or more changes are uncertain.

The variants in the series derive from B1. The series can be described thus: self-cleavage, relative activity (ratio to wild type); higher = more cleavage; in vitro, sequencing. In a few lines: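 For each CPEB3 ribozyme variant, relative activity is its cleaved/total read fraction divided by the unmutated ribozyme's. Barcoded error-prone PCR libraries were transcribed by T7 RNA polymerase (5 hours, 37°C) and held in DNase I for 15 min before an EDTA stop, with cleavage occurring throughout. Template-switching reverse transcription and Illumina sequencing were used to read the RNAs. A 5-read minimum applied, and results are the mean of three batches.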
For UAACAGGGGGCCUCAGCAGAAGCGUUCACGUCGCAGCCCCAGUCAGAUUCUGGUGUAUCUGCGAAUUCUGCUGUAUAUAUC, the self-cleavage is 0.2.

Regarding UAACAGGGGGCCUCAGCAGAAGCGUUCACGUCGCAGCCCCCGUCAGAUUCUGGUGAAUCUGCGAAUUCUGCUGUUUAUCUC, the self-cleavage turned out to be 1.23.

Turning to UAACAGGGGGCCUCAGCAGAAGCGUUCACGUCGCAGCCCCGGUCAGAUUCUGGUGGGUCUGCGAAUUCUGCCGUAUACCUC, the self-cleavage turned out to be 0.06.

Take UAACAGGGGGCCUCAGCAGAAGCGUUCACGUCGCAGCCCCUGACAGAUUCUGGUGAACCUGCGAAUUCUGCUGUAUAUCUC: the self-cleavage is 1.01.

UAACAGGGGGCCUCAGCAGAAGCGUUCACGUCGCAGCCCCUGCCAGAUUCUGGUGAAUCUGCGAAUACUGCUGUAUUUCUC: the self-cleavage came to 0.43.

Consider UAACAGGGGGCCUCAGCAGAAGCGUUCACGUCGCAGCCCCAGUCAGAUUCUGGUGAAUCUGCGUAUUCUGCUGUAUAUCUC, for which the self-cleavage was 0.1.

Turning to UAACAGGGGGCCUCAGCAGAAGCGUUCACGUCGCAGCCCCUGUCAGAUUCUGGCGAAUCUGCGAAUUCUGCAGUAUAUCUC, the self-cleavage was determined as 0.58.

Consider UAACAGGGGGCCUCAGCAGAAGCGUUCACGUCGCAGCCCCUGACAGAUUCUGGUGAAUCCGCGAAAUCUGCUGUAUAUCCC, for which the self-cleavage amounted to 0.21.

Regarding UAACAGGGGGCCUCAGCAGAAGCGUUCACGUCGCAGCCCCGGUCAGAUUCUGGCGAACCCGCGAAUUCCGCUGUAUAUUUC, the self-cleavage amounted to 0.14.

As for UAACAGGGGGCCUCAGCAGAAGCGUUCACGUCGCAGCCCCUGUCAGAUUCAGGUGAAUCUGCGAAUUCUGCCGUAUACCUC, the self-cleavage is 1.23.

Turning to UAACAGGGGGCCUCAGCAGAAGCGUUCACGUCGCAGCCCCUGUCAGACUCUGGCGAAUCUGCGAAUACUGCUGUAUAUCCC, the self-cleavage worked out at 0.45.

In the case of UAACAGGGGGCCUCAGCAGAAGCGUUCACGUCGCAGCCCCUGUCAGAUUCCGGCGAAUCUGCGAAUUCUGCUGUAUAUCUC, the self-cleavage is 1.01.

UAACAGGGGGCCUCAGCAGAAGCGUUCACGUCGCAGCCCCUGUCAGAUUCUGGCGAACCAGCGAAUCCUGCUGUAUAUCUC: the self-cleavage was determined as 0.12.

Regarding UAACAGGGGGCCUCAGCAGAAGCGUUCACGUCGCAGCCCCUGCCAGAUUCCGGUGAAUCUGCGAAUUCUGCUGUAUAUCUC, the self-cleavage is 0.93.

For UAACAGGGGGCCUCAGCAGAAGCGUUCACGUCGCAGCCCCUGUCAGAUUCAGGUGAAUCUGCGAAUUCUGCAGUAUAUCCC, the self-cleavage came out at 1.14.

Regarding UAACAGGGGGCCUCAGCAGAAGCGUUCACGUCGCAGCCCCUGACAGAUUCUGGUGAAUCUGCGAAUACUGCUGUAUAUCUC, the self-cleavage was 0.74.

As for UAACAGGGGGCCUCAGCAGAAGCGUUCACGUCGCAGCCCCUGUCAGAUUCCGGUGAAUCUGCGAAUUCUGCUGUAUAUCUA, the self-cleavage turned out to be 1.08.

As for UAACAGGGGGCCUCAGCAGAAGCGUUCACGUCGCAGCCCCUGCCAGAUUCUGGCGAAUCUGUGAAUUCUGCUGUAUAACUC, the self-cleavage stood at 0.14.

As to UAACAGGGGGCCUCAGCAGAAGCGUUCACGUCGCAGCCCCUGUCAGAUCCUGGUGGAUCUGCGAAUUCUGCUGUAUAUCUC, the self-cleavage stood at 1.42.

For UAACAGGGGGCCUCAGCAGAAGCGUUCACGUCGCAGCCCCUGUCAGAUUCUGGCGAAUCCGCGAAUUCUGCUGUAUAUCUC, the self-cleavage came out at 0.66.

As to UAACAGGGGGCCUCAGCAGAAGCGUUCACGUCGCAGCCCCUGUCAGAUUCUGGCGAAUCAGCGAAUUCUGCUGUAUAUCUC, the self-cleavage was found to be 0.68.

As for UAACAGGGGGCCUCAGCAGAAGCGUUCACGUCGCAGCCCCUGUCAGAUUCAGGUGAAUCUGCGAAUUCUGCUGUACAUCUC, the self-cleavage worked out at 1.21.

With UAACAGGGGGCCUCAGCAGAAGCGUUCACGUCGCAGCCCCCGUCAGAUUCUGGUGAAUCUGCGAAUUCAGCUGUAUAUCUC, the self-cleavage came out at 0.65.

As to UAACAGGGGGCCUCAGCAGAAGCGUUCACGUCGCAGCCCCUGUCAGAUCCUGGUGAAACUGCGAAUUCUGCUGUAAAUCUC, the self-cleavage came out at 0.2.

For UAACAGGGGGCCUCAGCAGAAGCGUUCACGCCGCAGCCCCUGUCAGAUUCUGGUGAAUCUGCGAAUUCCGCAGUAUAUCUC, the self-cleavage stood at 0.33.

For UAACAGGGGGCCUCAGCAGAAGCGUUCACGUCGCAGCCCCAGUCAGACUCUGGUGAAUCUGCGAAUUCUGCUGUAUAUCUC, the self-cleavage was 0.19.

In the case of UAACAGGGGGCCUCAGCAGAAGCGUUCACGUCGCAGCCCCUGUCAGAUUCUGGGGAAUCUGCGAACCCUGCUGUUUAUCUC, the self-cleavage was determined as 0.13.

With UAACAGGGGGCCUCAGCAGAAGCGUUCACGUCGCAGCCCCAGUCAGAUUCUGGUGAAUAUGCGAAUUCUGCUGUAUAUCUC, the self-cleavage was 0.44.

In the case of UAACAGGGGGCCUCAGCAGAAGCGUUCACGUCGCAGCCCCUGUCAGAUACUGGUGUAUCUGCAGAUUCUGCUGUAUAUCUC, the self-cleavage stood at 1.01.

As for UAACAGGGGGCCUCAGCAGAAGCGUUCACGUCGCAGCCCCUGUCAGAUUCUGGCGAACCAGCGAGUUCUGCUGUAUAUCUC, the self-cleavage was 0.25.

UAACAGGGGGCCUCAGCAGAAGCGUUCACGUCGCAGCCCCAGUCAGAUUCUGGUGAAUCUGCGGGUUCCGCUGUAUAUCUC: the self-cleavage came out at 0.21.

As to UAACAGGGGGCCUCAGCAGAAGCGUUCACGUCGCAGCCCCUGUCAGAUUCCGGUGAAUCUGCGAUUUCUGCUGUAUAUCUC, the self-cleavage came to 0.3.

As for UAACAGGGGGCCUCAGCAGAAGCGUUCACGUCGCAGCCCCCGUCAGACUCUGGUGAAUCCGCGAAUUCUGCUGUAUACCUC, the self-cleavage was found to be 0.38.

UAACAGGGGGCCUCAGCAGAAGCGUUCACGUCGCAGCCCCUGCCAGAUUCUGGUGAAUCUGCGAAUUCUGCUGUAUAUCAC: the self-cleavage is 1.06.

The record behind these values is the RNAGym collection of RNA variant scans (doi:10.1093/nar/gkz1192).
